# Laboratory results from PubChem BioAssay (NCI).
#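 Method: 48-hour compound exposure of cells in 96-well plates, five concentrations, linear interpolation of endpoints. At the GI50, growth is halved. TGI is the concentration that stops growth completely.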
# System: NCI-H322M lung
# Experiment: NCI tumour cell line growth inhibition, 48 h
smiles,measurement,value
Cc1cc2nc3c4cc(Cl)ccc4n(CC(=S)NCCN(C)C)c3nc2cc1C,GI50,4.04 µM
same,TGI,15.5 µM
